Measurements reported in the RNAGym collection of RNA variant scans (doi:10.7554/elife.90254).
The source gives no read counts; variants with many changes may rest on few reads.

B1: LINE1-mini (parent)
chain: GGCAGAGCUCAACACAGCGUGGCAAAGUGGCUGUGGCUAGACUGCC

Variants of: B1
Test: self-cleavage, relative activity (ratio to wild type); higher = more cleavage; in vitro, sequencing; the parent is a self-cleaving ribozyme

Variant | self-cleavage
GGCGGAGGUCAACACAGCGUUGCAAAGAAGCUCUGGCUAGACUGCC | 0.03
GGCGGAGAUCAACACAGCGUUGCAAAGUGGCUGUGGCUAGACUGCC | 0.07
GGCGGAGCUCAAUACAUCGUGGCAAAGUGGCUGUGGGUAGACUGCC | 0.11
GGCGGAGCUCAACACUGCUUGGCAAAGUGGCUGUGGCAAGACUGCC | 0.09
GGCGGAGGUCUACACAGCGUGGCAAAGUGGCUGUGGCUAGACUGCC | 0.01
GGCGGAGGUCAACACAGCGUGGCAAAGUGGUUGUAGCUAGACUGCU | 0.01
GGCGGAGCUCAACACAGCGUGGCCAAGUGGCUGUGGCUAGACUGCG | 0.06
GGCGGAGCUCAACACAGCGUGGCAACGUAGCUGUGGCCAGACUGCA | 0.08
GGCGGAGCUCAACACAGCGUGGCCAUGUGGCUGUGGCUAGACUGCC | 0.22
GGCGGAGCUUAAACCAGCGUGGCAAAGGGGCUGUGGCUAUACUGCC | 0.03
GGCGGAGAUCAACACCGCGUGGCAAAGUGACCGUGGCUAGACUGCC | 0.21
GGCGGAGCUCAAAACAGCGUGGCAAAGUGGCUCUGGCUAGGCUGCC | 0.05
GGCGGAGCUCAAUACAGCUUGGCAAAGUGGCUGUGGCUAGACUGCC | 0.35
GGCGGAGCUCAAUACAGCCUGGCAAAGUGGCUGUGGCUAGACUGCC | 0.16
GGCGGAGCUGGACACAGCGUGGCAAAGUGGCUGUGGCUAGACUGCC | 0.03
GGCGGAGCUCAACACAGCGUGGCACAGUGGCUGUAGCUAGACUGCC | 0.09
GGCGGAGCUUAACACAGCGUGGCAGAGUGGCUGUGGCUAGAUUGCC | 0.02
GGCGGAGCUCAACACAGCGUGGCCAAGUGGAUGUGGCUGGACUGCC | 0.05
GGCGGAGCUCAACACAGCGUGGCAAGGUGGCUGUGGCUUGACUGCC | 0.39

Variant | self-cleavage
GGCGGAGCUCAACACUGCGUGGCAAAGUGGCUGUGGCUAGACUACC | 0.04
GGCGGAGCUCAACACGGCGUGGCAAACUGGCUGUGGCUAGAUUGCC | 0.02
GGCGGAGCUCAACACAGCGUGGCAUAGUGGCUAUGUCUAGACUGCC | 0.08
GGCGGAGAUCAACACAGCGUGGCGAAGUGGCUGUGGCUAGAUUGCC | 0.04
GGCGGAGUUCAACACAGCGUGGCAAAGUGGAUCUGGAUAGCCUGGC | 0.03
GGCGGAGCUGAGCACAGCGAGGCAAAGUGGCUGUGGCUAGACUGCC | 0.01
GGCGGAGCUAAACACUGCGUGGCAAAGUGGCUGUAGCUAGACUGCC | 0.05
GGCGGAGCUUAACACAGCGUGGCAAAGUGUCGGUGGCUAGACGGCC | 0.03
GGCGGAGAUCAAGACAGCAUGGCAAAGUGGCUGUGGCUAGACUCCC | 0.03
GGCGGAGAUCAACACAGCGUGGCAAAGUGGCAGUGGCGAGAUUGCC | 0.12
GGCGGAGCUCAAAACAGCGUGGCAACGUGGCUGUCACUAGACUGCC | 0.04
GGCGGAGCUCAACACAGCGUGGCAAUAUGGCUGUAGCUAGACUGCC | 0.07
GGCGGAGCUGAAUACGGCGUGGCAAAGCGGCUGUGGCUAGACUGCC | 0
GGCGGAGCUCAAUGAAGCGUGGCAAAGUGGCUGGGGUUUGACUGCC | 0.93
GGCGGAGCUCAACACCGCGUGGCAAAGUGGCUGUGGCAAGACUGCC | 0.06
GGCGGAGCUCAACACAGCGUGGCAGAGUGGCUGUCGCUAGACUGCC | 0.03
GGCGGAGCUCAAGACAGCGUGGCAAAGUGGCUGUGGUUAGACUGUC | 0.15
GGCGGAGCUCAACACGGCGUGGCAAAGUGGCUGUGUCAAUACUGCC | 0.03
GGCGGAGAUCAACACAGCGUGGCAACGUGGCAGUGGCUAGACUGCC | 0.1

Variant | self-cleavage
GGCGGAGCUUAACACAGCGUGGCAAAGUGGCUUUGGCUAGACUGCG | 0.02
GGCGGAGGUCAACACAGCGUGGCAAAGUGGAUGUGGCUAGACUGCC | 0.07
GGCGGAGCUUAACACAGCGUGGCAAAGUGGCUGUGUCUAGACUGCC | 0.06
GGCGGAGCUUAACACAGAGUGGCAAAAUGGCUGUGGCUAGACUGCC | 0.03
GGCGGAGCUCAAGACAGCGUGGCAAAGUGGCUUUGGCUAGAUUGCG | 0.09
GGCGGAGCUCAAUACAGCGUGGCAAAGUGGCUGUGGCUGGACUGAC | 0.08
GGCGGAGCUCAACACAGCGUGGCAUAGUGGAUGUGGCUAGACUGCC | 0.09
GGCGGAGCUUAACACAGCGUGCCUCAGUGGUUGUGGCUAGACUGCC | 0.02
GGCGGAGCUAAACACAGCGUGGCAGAGUGGCUGUGGCUAGACUGCC | 0.01
GGCGGAGUUCAACACAGCGUAGCAAAGUGGCUGUGGCUAGACUGCC | 0.02
GGCGGAGCUCAACACGGCGUGGCAAUGUGGCUGUGGCUAGACUGGG | 0.15
GGCGGAGCUCAAAACAGCGUGGCAAAGUGGCUGUGGCUAGCCUUCC | 0.1
GGCGGAGCUCAAUACAGCGUGGCAAAGUGGCUGUGGCUAGACUGAC | 0.14
GGCGGAGCUCAACACGGCGUGGCAAAGUGGCUAUGGCUAGCCUGCC | 0
GGCGGAGCUCAAUACAGCGUGGCAAAGUGGGUGUGGCUAGCCUGCC | 0.04
GGCGGAGCUCAACACAGCGUGGCAAAGUGGCUGUGGCUGGACUGCU | 0
GGCGGAGCUCAAAACAGCGUCGUAAAGUGGCUGUGGCUAGACUGCC | 0.09
GGCGGAGCUACACACAGCGUGGCAACGUGGAUGUGGCUAGACUGCC | 0.02
